# Results from PubChem BioAssay (Tox21).
# Inconclusive results are not listed. Unless noted, calls follow the shape of the dose curve; as a rule, active = well fitted curve in the direction sought with a large enough effect in the repeat runs; inconclusive = weak or mixed curves; inactive = no such curve, though single readings can be large; an effect the other way counts as inactive or inconclusive. Some compounds were tested as several samples or in several runs, with calls that do not always agree. A number of entries come with more than one value. The other results are left out here. There may be further records. Values given together are repeated measurements across runs, samples, wells, individuals or studies. Brackets tell where a record comes from. The letters are not those of the source and start again with each entry.
# What was measured:
# [1] = qHTS assay for small molecules that induce genotoxicity in human embryonic kidney cells expressing luciferase-tagged ATAD5 - cell viability (AID 651634; calls by dose curve; also: nearly all actives have a fitted effect of over 25% in size)
# In short: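 Cells (HEK293T, luciferase-tagged ATAD5) are seeded at 2,000 per well, dosed with compound or DMSO vehicle, and incubated 15.5 hr at 37C and 5% CO2. CellTiter-Fluor is added for 30 min before fluorescence is measured.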
# [2] = qHTS assay to identify small molecule antagonists of the glucocorticoid receptor (GR) signaling pathway - cell viability counter screen (AID 720693); also: nearly all actives have a fitted effect of over 55% in size
# [3] = qHTS assay to identify small molecule agonists of the constitutive androstane receptor (CAR) signaling pathway - cell viability counter screen (AID 1224836); also: nearly all actives have a fitted effect of over 45% in size
# In short: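 Counter screen multiplexed with the CAR reporter readout: HepG2 cells co-transfected with hCAR and the CYP2B6-2.2kb construct receive a 15-concentration compound series and 0.75 uM PK11195 (final), then CellTiter-Fluor fluorescence is read after 23 h.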
# Potency is read from the fitted curve at half-maximal effect.
structure (smiles),measurement,setting,value
Oc1c(I)cc(Cl)c2cccnc12,Potency,[1],inactive [sample A] and active: 27.3 µM [sample B]
CCN(CC)C(=O)c1cc(S(=O)(=O)Cc2ccccc2)c(N2CCC(c3ccccc3)CC2)cc1N(CC)CCN(C)C,Potency,[2],active: 23.9 µM [sample A] and inactive [sample B]
Cc1c2ccccc2c(C)c2c1ccc1ccccc12,Potency,[3],inactive [sample A] and active: 54.5 µM [sample B]
